According to the supplement of paper PMC10185492:
The list shows a part of the results. These are enrichments in a pooled selection; single values are uncertain.

What follows are substances tested on SARS-CoV-2 3CLpro (nsp5) (assay: substrate phage enrichment score (protease-eluted vs HEPES control, +1 offset) (ratio); higher = better cleaved substrate). Settings: selection round: 4; protease elution time: 15 min.
Experimental: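 Random heptapeptide substrate phage display (M13 pIII fusion, heptapeptide between an N-terminal biotinylated AviTag GLNDIFEAQKIEWHE and pIII; phages immobilised on streptavidin) eluted by cleavage with 50 nM protease in 20 mM HEPES at 37 °C. Selected phages were NGS sequenced, and the enrichment score is (reads in protease sample + 1)/(reads in HEPES blank-selection control + 1).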

Substance	substrate phage enrichment score
LTAPHLD	0.547
KPCWNSG	1
TYSTTTK	0.458
ARYGPCP	0.0488
PVAAHHH	1.32
STLMSEC	0.389
PAASSVR	> 26
RSSPSLK	> 24
YQTSTLQ	> 53
TGVYSQR	> 33
QARHENG	1.2
TNHHHHH	14
SRWPFSI	2.13
KTSGVMT	1.4
VPGRKPG	> 39
NNTEQFR	> 21
LNRGHYW	3.62
SNKRTCT	18
FPNGTQR	> 76
KTTQKGL	> 27
LLNPVDT	4
VELPVTQ	1.44
RSATMLQ	> 40
HGCKNSP	> 21
ALHLLPP	> 148

Substance	substrate phage enrichment score
NRLDACF	10
QATLQGR	> 39
SEAAPCS	> 29
HVFQPPV	4.6
MCRPNRQ	1.06
VRNQGQY	> 33
QQTHVTR	> 49
MDQVSPS	> 80
GVAATPT	> 26
ALQPKTG	0.118
CAAAQQH	1.61
RLHTILQ	> 97
DHRNNLN	0.692
AHYREQC	1.88
MERKPVG	> 35
VCTGAAK	4.5
QSGDKEP	1.17
SPTPKCG	2.67
FERNSWQ	> 31
KGLHHVR	> 27
PRCPLTW	> 73
KHFQGGS	0.688
DNQPSLH	1.75
SRDEPYG	2
CQAAHHH	0.114

Substance	substrate phage enrichment score
NHTSLMQ	9.33
AKMRTGD	3
RRQNERE	> 28
LIRMVSV	2.71
SQEKDGT	> 21
IESITLQ	> 42
TERTNKL	4.39
APQWCNR	> 30
SNSPPYL	1.44
RQSFMPD	> 31
ESGQLYG	1.25
PSSECAM	> 23
DAAAHHH	0.523
LEHPNRA	> 41
PTHREGS	34
KSGDGCI	0.963
NRRPCKW	1.11
HIQSWRG	> 47
DKWVPTD	0.149
SWQGGFN	11
KSGRDLQ	3.67
HQTKGPG	> 41
ASAPLLQ	> 714
CCRPCAM	5.2
FSLSAGH	6.67

Substance	substrate phage enrichment score
RTRVHDW	2.83
ERSEDLK	2.43
SAAAQHN	1.85
PTQFDRP	1.83
SRTGAYQ	6.67
QHTNGGG	> 28
PHLRDHA	1.14
RQAAHHH	0.833
SAPSPAQ	4.75
TYEPTRP	> 26
RAAAQQQ	2.29
RNQGIWQ	1
VNDSVTW	> 24
NDGPLNP	14.3
THSQWPN	29.7
RQVSSAE	0.0444
DAHRMGH	2
VSAVLQA	> 21
SMAAHHH	0.471
TPNVTNG	0.08
KHGQSSH	1.08
IRTMEPE	> 36
QNTEAAH	0.136
TACLQGR	14.7
CDAAHHH	0.704

Substance	substrate phage enrichment score
HDGCSPT	0.947
GRPLHGQ	> 52
CIHRGGT	0.812
RHNIRAG	0.12
RSQCALH	20.5
ICVEVQR	2.29
AHWKGMN	2.14
SRTRLQG	301
CTDTLSR	> 202
KPNQSHQ	> 50
THSTVLS	> 23
CKLRKPV	2
SNPNHMI	3.39
VKAQSPR	1.56
HQLASPK	0.519
ACPGYFE	0.8
SSTAHHH	1.09
RRTELDR	> 31
SSVPWEN	> 23
SDYVRPR	1.18
KAAHIPR	17.7
RDFGGTN	8
QSMQIRA	> 28
TPPNSLR	0.914
ACQGNWR	1.31

Substance	substrate phage enrichment score
IQCVVKP	0.261
ITDWHRT	1.38
SGSLDNH	0.769
CAAAHHK	1.27
LDFQGGS	1.13
CTQWPRS	0.474
KWTNLPR	> 24
TQMSTTS	> 35
QGGVIFS	> 21
YAGMDTA	> 22
NHGRAPR	> 31
RHHTQTP	0.875
AQKVPLV	> 36
APNTLKV	0.0952
EVRQPKD	7.33
PGDQMKS	0.143
ETFHASG	2.38
NPNEDAT	> 21
LRNPRQQ	0.667
NPRCQHP	> 72
QCVRSSN	> 29
GGSYIMH	1.55
SASSSFR	> 21
RDQPPAK	5.83
GHWGERP	0.933

Substance	substrate phage enrichment score
GHNAVHN	> 31
NTLGVPS	0.3
QHRYTQV	> 33
KSSPAAH	0.682
ELNIQGG	> 40
NHYDMTS	1.15
YGEVTLQ	612
KKQTLLQ	> 246
MGSAAHH	4.57
QNFQGGS	0.842
FPSQCEQ	> 21
EAWSPPA	> 32
CQYIIKP	2.83
TKFLTNG	> 77
SGRSTLQ	> 21
KTGKEIP	6.67
ITPTRLQ	> 84
AKLQSQW	> 73
SVGAALQ	> 55
PWSTGMQ	0.208
SSCGYRA	> 29
APTPHTP	> 36
SQSCRQH	12
RDCIREA	0.667
GPYGILY	> 80

Substance	substrate phage enrichment score
RCRTAET	> 37
LKPVQTR	3.67
HPLKTDM	1.5
VTRESGA	10.5
NRRHCAR	> 219
SAAGHHH	2.14
STSKPLL	0.714
KPQGGSA	0.0833
GDAPRGA	> 27
AVSAKLQ	> 27
AGVPTVQ	22
TPAHHHH	0.478
EHNSCLQ	19.3
RQSTSPK	1.79
INRSSMV	14.8
TAVTEGT	0.6
KRDTLTM	> 37
WSEGTEG	6.29
TSGGVDA	3.33
CIGHNTR	0.103
SGPRSSY	1.36
SEAAHHH	0.755
FAPTPHV	5.12
DHSVPLR	> 22
ARPSDVT	> 26

Substance	substrate phage enrichment score
ARLDEVT	0.304
KPVDVSR	> 137
CSREVPV	> 37
WYLTPNR	0.867
SLHSNRE	0.222
NQPSKPA	1.85
SHRTPTG	> 30
RCRLHST	11.5
NKRLPRN	0.812
PRAAHHH	1.52
CSSKRPA	2.96
CKTGTEL	> 24
PTRPSSR	3.42
PYPAAHH	> 183
GNLYNRQ	> 24
LDPSRVG	> 22
QDSIMKG	> 33
RHLSPDR	> 29
RPGPQEQ	1
ACMANEN	> 34
PKQYNEQ	0.19
PSFYGEP	8
CIFHAPE	2.58
RCLPSRP	3.22
KPTSLLD	1.21

Substance	substrate phage enrichment score
SPANMSV	0.0606
ACKYNRQ	> 114
CTRPLPG	64.5
CKNGTYA	> 28
WCTPNAR	2.83
VNQRLNP	47
NQTSGRH	> 30
FPPGAPR	> 22
AQLQSGF	> 21
SKYGVLG	> 31
YSAAAHH	1.17
QTEPTII	3.15
ANCWPPR	2.31
APERGAP	1.89
LNWRVTT	9
KDQLTPN	> 21
RRCNISR	0.82
PHVSKPA	7.86
IRCGMQR	> 25
DAAVLQA	> 39
LNNDSLG	1.46
PWQNGTR	3
DSGSVCE	> 181
TRCNAAG	2
PHCTHLK	> 22

Substance	substrate phage enrichment score
RDQQLNR	3.52
ECATNQY	3.17
ADCLPGA	0.692
NGQFSSP	1
NDHTELQ	> 292
RSISCPE	1
GKCSLQS	32
RMMPNKH	> 46
TAAPVFQ	> 67
TTESTPP	2.29
AETGTGH	1.87
DTLMPNR	> 29
LWRHGMP	> 56
NPSTRLQ	13
PAPRATT	2.11
KYFQGGS	0.902
CETVQPT	> 124
SCHRAEF	> 21
AQSPTLQ	> 124
DNIVTGC	5.5
KSGAGAC	5.6
LQQKFIQ	96
LHEMNRQ	4.8
THNSNVR	> 22
KKNNAYR	3.88

Substance	substrate phage enrichment score
AHTATLQ	> 21
NRFFQGG	9.33
SDWTLGN	2.11
TPYCSNT	8.71
LRAAHHH	0.579
ESSGPSI	1.31
CQRVTKP	3.04
CFLLRKS	> 32
KGLEHGK	1.25
GRLIFMG	> 50
CLKTPSA	> 21
STLPQVS	1.17
SSAIPRH	> 21
PHANCRQ	> 21
VLGRFVR	> 39
YGACQPT	2.56
FHTQLQC	> 80
LRLRLFR	11.3
CEVRTRT	1.2
RSETSTD	> 22
GRWPSPR	0.182
EESANAH	3.38
QNQYVTY	2.36
RAPAILQ	216
GPNTKLQ	> 167

Substance	substrate phage enrichment score
QLNEAGH	> 100
CHSKVVT	0.571
TATAHHH	0.579
KQGGDPQ	1.16
AGLSHLQ	> 52
TWSQSMS	> 21
WPTDVTN	3.22
QKRTPGN	0.16
PAYKSDR	> 21
HEKKDDG	0.381
PGGQRTS	3.6
RHLNSSD	5.57
VRCRLQA	> 659
NTTNNWR	> 22
TRSFGQP	0.381
DNNVQAA	0.6
ASTSGPN	13.3
GWFYSAR	> 37
TPSTTTL	> 37
TASRSSR	1.5
SAAAHHL	1.14
ATAVLQS	> 76
GSRCRTP	3.43
ENEPDSY	2.46
QYGYSEH	> 42

Substance	substrate phage enrichment score
ERTRYSR	0.815
CLTRCSY	0.632
QPSTILQ	> 21
QAGSLHR	1.56
GCTQAAG	1.15
HGAKLCP	2.6
TNSFHMN	3.6
PTKPCGP	> 23
HNIRTTD	0.0129
AIPVWQA	1.82
LFFQGGS	10
ECDTDQA	1.56
TGSAAAH	1.25
LSFQGGS	1.63
SQPSLLQ	11.5
TYLQSAT	> 36
APCRLGY	> 37
GHYENVG	12
ALMHSEP	10
CLRTILQ	> 22
ARNLQGP	3
GKLHSQG	0.619
LEHCLCS	1.07
ESAAAHH	0.68
FQMKEYG	1.23

Substance	substrate phage enrichment score
HVLYEPM	> 61
CSLYGSN	1.45
YSKYCRC	> 21
GQPKRDC	3.57
RAKSDAS	0.114
ATFGSDR	1.79
HLEYWRY	> 32
TTDSCVR	5.5
VELDGVR	12.5
CSYSQSR	2.7
KWQGSVI	> 32
THAHCGD	0.833
PYLKQGW	1.44
ANTCSPS	> 21
ASCKPIR	9.2
RAQPQHQ	8.67
CPRHNSN	2.73
